Results reported in PubChem BioAssay AID1745845 (National Center for Advancing Translational Sciences (NCATS), 2022).
Values joined by “and” are separate entries in the source; they are usually repeats but may differ in a detail not shown here. Identical values can stand only once. Among all 360,000 compounds or so, about 2,600 (0.72%) were called active. The shares of active, inactive and inconclusive entries below differ from those in the screen. Calls come from the whole dose curve; as a rule, active = well fitted inhibition curve with a large enough effect; inconclusive = small, poorly fitted or top-dose-only effect; inactive = no such curve, though single readings can be large or run the other way. A potency beside an inconclusive call is a rough fit, not a confirmed value.

Assay: Primary qHTS for Inhibitors of ATXN expression; note: nearly all actives have a fitted effect of over 55% in size
Details: HEK-293 ATXN2-luciferase reporter, luminescence, 24 h; activity change, negative = inhibition: at 57 µM (top of the series)
How it was run: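 ATXN2-luciferase reporter cells (luciferase flanked by upstream and downstream ATXN2 gene portions) were treated 24 h at 37 °C with compounds at up to 57 uM. SteadyGlo luminescence gave expression; GF-AFC fluorescence gave viability.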
% is set by controls: 0 for no effect and ±100 for the full control effect; potency is the fitted concentration of half-maximal effect; tags give direction and shape of the fitted curve.

Row | Structure (SMILES) | Potency | activity change, negative = inhibition
1 | Cc1ccc(NC(=O)CC2SC3=NCCN3C2=O)cc1 (stereo not drawn) | inconclusive: 6.31 µM [inhibitor, single point] | –
2 | CCC(C)(C)n1nnnc1C(c1cccc(C#N)c1)N1CCN(c2cc(C)ccc2C)CC1 (stereo not drawn) | inactive | –
3 | O=C(COc1ccc(Br)cc1CO)Nc1ccc(S(=O)(=O)N2CCCCC2)cc1 | inconclusive: 12.6 µM [inhibitor, partial curve, poor fit] | –
4 | Cc1[nH]c2ccccc2c1C(c1ccccc1)c1cccs1 (stereo not drawn) | inconclusive: 39.8 µM [inhibitor, single point] | –
5 | C=CCn1c(SCC(=O)NCc2ccc3c(c2)OCO3)nc2scc(-c3ccccc3)c2c1=O | inactive | –
6 | Cc1ccc(NC(=O)CSc2c3c(nc4ccccc24)CCCC3)cc1F | inconclusive: 39.8 µM [inhibitor, single point] | –
7 | O=S(=O)(NCCc1ccccc1)c1ccc(Cl)nc1 | inactive | –
8 | CC1(c2ccccc2)NC(=O)N(CC(=O)Nc2nc(-c3ccccn3)cs2)C1=O (stereo not drawn) | inconclusive: 15.8 µM [inhibitor, partial curve, poor fit] | –
9 | O=C(Nc1cccc(C(F)(F)F)c1)OCCN1CCN(Cc2ccccc2)CCC1=O | inconclusive: 22.4 µM [inhibitor, partial curve, poor fit] | –
10 | CCC(=O)c1cn([C@H](CCC(OC)OC)CC(=O)OC(C)(C)C)cc1CC | inactive | –
11 | C/C(=N\O)c1ccc(OCC(=O)N2CCCCC2)cc1 | inactive | –
12 | NS(=O)(=O)c1ccc(CNC(=S)NCc2ccc(F)cc2)cc1 | inactive | –
13 | O=C(Nc1cc(C(=O)N2CCCC2)ccc1N1CCCC1)c1ccccc1F | inactive | –
14 | Cn1ccnc1Sc1cc(NCCCO)c([N+](=O)[O-])c2nonc12 | inconclusive: 33.6 µM [inhibitor, single point] | –
15 | O=C1C=C(c2ccc3ncccc3c2)C[C@@H](c2ccc(Cl)cc2)C1 | inconclusive: 39.8 µM [inhibitor, single point] | –
16 | COc1cc(OC)cc(C2=Cc3ccccc3C(CC(=O)c3ccco3)N2c2ccc(-c3ccc(C(N)=O)cc3)cc2)c1 (stereo not drawn) | inactive | –
17 | COC(=O)C1=C(C)N(Cc2ccccc2)C(=NCc2ccccc2)N[C@H]1c1cccc(F)c1 | inconclusive: 35.5 µM [inhibitor, single point] | –
18 | COc1ccc2[nH]c(C)c(CCNC(=S)Nc3cccc(C)c3)c2c1 | inactive | –
19 | COc1ccc(OC)c(C(C[N+](=O)[O-])c2c(C)cc3ccccn23)c1 (stereo not drawn) | inconclusive: 37.7 µM [inhibitor, single point] | –
20 | COc1ccc(/C=N/NC(=O)CCn2cnc(-c3ccccc3)c2-c2ccccc2)cc1OC | inconclusive: 3.16 µM [inhibitor, partial curve, poor fit] | –
21 | Cc1cccc(N(C)C(CNS(=O)(=O)c2ccccc2)c2ccccc2)c1 (stereo not drawn) | inconclusive: 39.8 µM [inhibitor, single point] | –
22 | COc1ccc(Nc2cc(C(=O)N3CCc4ccccc4C3)c3ccccc3n2)c(OC)c1 | inconclusive: 2.24 µM [inhibitor, partial curve] | –

Row | Structure (SMILES) | Potency | activity change, negative = inhibition
23 | Brc1ccc(OCc2ccccc2)c(CNCc2ccncc2)c1 | inconclusive: 35.5 µM [inhibitor, single point] | –
24 | COc1ccc(/C=N/NC(=O)c2ccncc2)cc1CN1CCOCC1 | inactive | –
25 | COc1cc(/C=C2\SC(=O)N(Cc3ccc(Cl)cc3)C2=O)cc([N+](=O)[O-])c1O | – | inactive: -21.1% [at 11.3 µM]
26 | CN1/C(=C\P(=O)(N(C)C)N(C)C)C(C)(C)c2ccccc21 | inconclusive: 25.1 µM [inhibitor, partial curve, poor fit] | –
27 | CN(c1ncc(C(F)(F)F)cc1Cl)N1C(=O)c2cccc(N)c2C1=O | inactive | –
28 | Cc1noc(C)c1NC(=O)N(C)C[C@@H]1OCc2ccccc2-c2c(n(C)c3ccccc23)C(=O)N([C@H](C)CO)C[C@H]1C | inconclusive: 28.2 µM [inhibitor, single point] | –
29 | N/C(=N\OC(=O)c1ccccc1)C(Cc1ccccc1)C(=O)NOC(=O)c1ccccc1 (stereo not drawn) | inconclusive: 39.8 µM [inhibitor, single point] | –
30 | Cc1cc(=O)c2c(O)c3c(O)cc(=O)c4c3c3c(cc(O)c1c23)C(C)(C)C=4O | inconclusive: 2 µM [inhibitor, full curve, poor fit] and active: 27.3 µM | –
31 | Cc1ccc(NC(=O)C2CCN(S(=O)(=O)c3cccc4nonc34)CC2)c(Cl)c1 | inactive | –
32 | CCN(CC)S(=O)(=O)c1ccc(NCCCn2ccnc2)c([N+](=O)[O-])c1 | inactive | –
33 | O=C(Nc1ccc(-c2nc3ccccc3s2)c(O)c1)c1ccc(Br)cc1 | inactive | –
34 | C=CCn1c(CCNC(=O)c2cccs2)nnc1SCC(=O)c1ccc(Br)cc1 | inactive | –
35 | O=C(CSc1nc2ccccc2c(=O)n1CCCN1CCOCC1)Nc1ccc(F)c(Cl)c1 | inconclusive: 31.6 µM [inhibitor, single point] | –
36 | C[C@H]1CN([C@@H](C)CO)C(=O)Cc2cc(NC(=O)CCC(F)(F)F)ccc2O[C@H]1CN(C)Cc1ccc(C(F)(F)F)cc1 | inconclusive: 35.5 µM [inhibitor, single point] | –
37 | CCOC(=O)C1=C(C)c2ccccc2N(C(=O)OC)C1(C)C(=O)OCC (stereo not drawn) | inconclusive: 35.5 µM [inhibitor, single point] | –
38 | Cc1ccc(C)c2[nH]c(=O)c(CN(Cc3ccco3)C(=O)Nc3ccccc3)cc12 | inactive | –
39 | CCOc1ccccc1N(C)C(=O)c1cc(S(=O)(=O)NCCc2ccc(Cl)cc2)ccc1F | inconclusive: 39.8 µM [inhibitor, single point] | –
40 | CCCC(=O)NC(c1ccco1)c1cc([N+](=O)[O-])c2cccnc2c1O (stereo not drawn) | inconclusive: 39.8 µM [inhibitor, single point] | –
41 | CCOc1ccc(NC(=O)COc2ccc(S(=O)(=O)N3CCOCC3)cc2)cc1 | inactive | –
42 | CCN(CC)S(=O)(=O)c1ccc(NC(=O)c2ccc3c(=O)n4c(nc3c2)CCCCC4)cc1 | active: 22.4 µM | –
43 | CCOC(=O)N1CCN(S(=O)(=O)c2ccc(C(=O)NNc3nc4c(C)cccc4s3)cc2)CC1 | inconclusive: 37.7 µM [inhibitor, single point] | –
